# From the supplement of paper PMC8728848
# Some of the results follow.
# Assays:
# Experiment in all cases: glycan array binding signal (z-score within array); higher = stronger binding
# Conditions in all cases: glycan notation: IUPAC condensed, linker removed
# [1] = target: Gal3S(b1-4)[Fuc(a1-3)]Glc
# Outline: (§1)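 From the Consortium for Functional Glycomics database, 3228 arrays were curated, keeping only those whose protein sequence was available. Binding is given as a within-array Z-score averaged across arrays sharing a protein sequence and across linkers. Negative Z-scores can be read as non-binding.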
# Gal3S4S(b1-4)GlcNAc = target: Gal3S4S(b1-4)GlcNAc
# Outline: as §1
# Gal3S6S(b1-4)GlcNAc = target: Gal3S6S(b1-4)GlcNAc
# Outline: as §1
# Gal3S6S(b1-4)GlcNAc6S = target: Gal3S6S(b1-4)GlcNAc6S
# Outline: as §1
# Gal4S(b1-4)GlcNAc = target: Gal4S(b1-4)GlcNAc
# Outline: as §1
# Gal4S6S(b1-4)GlcNAc = target: Gal4S6S(b1-4)GlcNAc
# Outline: as §1
# Gal6S(b1-4)Glc = target: Gal6S(b1-4)Glc
# Outline: as §1
# Gal6S(b1-4)Glc6S = target: Gal6S(b1-4)Glc6S
# Outline: as §1
# Gal6S(b1-4)GlcNAc = target: Gal6S(b1-4)GlcNAc
# Outline: as §1
# Gal6S(b1-4)GlcNAc6S = target: Gal6S(b1-4)GlcNAc6S
# Outline: as §1
# GalNAc(a1-3)Gal = target: GalNAc(a1-3)Gal
# Outline: as §1
# GalNAc(a1-3)GalNAc = target: GalNAc(a1-3)GalNAc
# Outline: as §1
# GalNAc(b1-3)Gal = target: GalNAc(b1-3)Gal
# Outline: as §1
# [2] = target: GalNAc(b1-3)Gal(a1-4)Gal(b1-4)GlcNAc
# Outline: as §1
# GalNAc(b1-3)GalNAc = target: GalNAc(b1-3)GalNAc
# Outline: as §1
# GalNAc(b1-4)GlcNAc = target: GalNAc(b1-4)GlcNAc
# Outline: as §1
# Glc(a1-4)Glc = target: Glc(a1-4)Glc
# Outline: as §1
# Glc(a1-6)Glc(a1-6)Glc = target: Glc(a1-6)Glc(a1-6)Glc
# Outline: as §1
# Glc(b1-4)Glc = target: Glc(b1-4)Glc
# Outline: as §1
# Glc(b1-6)Glc = target: Glc(b1-6)Glc
# Outline: as §1
# GlcA(b1-3)Gal = target: GlcA(b1-3)Gal
# Outline: as §1
# GlcA(b1-3)GlcNAc = target: GlcA(b1-3)GlcNAc
# Outline: as §1
# GlcA(b1-6)Gal = target: GlcA(b1-6)Gal
# Outline: as §1
# [3] = target: GlcNAc(a1-3)Gal(b1-4)GlcNAc
# Outline: as §1
# [4] = target: GlcNAc(a1-6)Gal(b1-4)GlcNAc
# Outline: as §1
# [5] = target: GlcNAc(b1-2)Gal(b1-3)GalNAc
# Outline: as §1
# [6] = target: GlcNAc(b1-2)Man(a1-3)[GlcNAc(b1-2)Man(a1-6)]Man(b1-4)GlcNAc(b1-4)GlcNAc
# Outline: as §1
# GlcNAc(b1-3)Gal = target: GlcNAc(b1-3)Gal
# Outline: as §1
# [7] = target: GlcNAc(b1-3)Gal(b1-3)GalNAc
# Outline: as §1
# GlcNAc(b1-3)Gal(b1-4)Glc = target: GlcNAc(b1-3)Gal(b1-4)Glc
# Outline: as §1
# [8] = target: GlcNAc(b1-3)Gal(b1-4)GlcNAc
# Outline: as §1
# [9] = target: GlcNAc(b1-3)Gal(b1-4)GlcNAc(b1-3)Gal(b1-4)GlcNAc
# Outline: as §1
# GlcNAc(b1-3)GalNAc = target: GlcNAc(b1-3)GalNAc
# Outline: as §1
# GlcNAc(b1-3)Man = target: GlcNAc(b1-3)Man
# Outline: as §1
# [10] = target: GlcNAc(b1-3)[GlcNAc(b1-4)][GlcNAc(b1-6)]GlcNAc
# Outline: as §1
# [11] = target: GlcNAc(b1-3)[GlcNAc(b1-6)]Gal(b1-4)GlcNAc
# Outline: as §1
# [12] = target: GlcNAc(b1-3)[GlcNAc(b1-6)]GalNAc
# Outline: as §1
# [13] = target: GlcNAc(b1-4)Gal(b1-4)GlcNAc
# Outline: as §1
# GlcNAc(b1-4)GlcNAc = target: GlcNAc(b1-4)GlcNAc
# Outline: as §1
# [14] = target: GlcNAc(b1-4)GlcNAc(b1-4)GlcNAc
# Outline: as §1
# [15] = target: GlcNAc(b1-4)GlcNAc(b1-4)GlcNAc(b1-4)GlcNAc(b1-4)GlcNAc
# Outline: as §1
# [16] = target: GlcNAc(b1-4)GlcNAc(b1-4)GlcNAc(b1-4)GlcNAc(b1-4)GlcNAc(b1-4)GlcNAc
# Outline: as §1
# [17] = target: GlcNAc(b1-4)[GlcNAc(b1-6)]GalNAc
# Outline: as §1
# [18] = target: GlcNAc(b1-6)Gal(b1-4)GlcNAc
# Outline: as §1
# GlcNAc(b1-6)GalNAc = target: GlcNAc(b1-6)GalNAc
# Outline: as §1
binder,measurement,setting,value
"RfpB (Mycobacterium tuberculosum), O05594 (protein) MAAGLVTASMSLSTAVAHAGPSPNWDAVAQCESGGNWAANTGNGKYGGLQFKPATWAAFGGVGNPAAASREQQIAVANRVLAEQGLDAWPTCGAASGLPIALWSKPAQGIKHAGPSPNWDAVAQCESGGNWAANTGNGKYGGLQFKPATWAAFGGVGNPAAASREQQIAVANRVLAEQGLDAWPTCGA",glycan array binding signal (z-score),[1],-0.568
same,glycan array binding signal (z-score),Gal3S4S(b1-4)GlcNAc,0.78
same,glycan array binding signal (z-score),Gal3S6S(b1-4)GlcNAc,-0.058
same,glycan array binding signal (z-score),Gal3S6S(b1-4)GlcNAc6S,-0.489
same,glycan array binding signal (z-score),Gal4S(b1-4)GlcNAc,0.029
same,glycan array binding signal (z-score),Gal4S6S(b1-4)GlcNAc,0.03
same,glycan array binding signal (z-score),Gal6S(b1-4)Glc,-0.576
same,glycan array binding signal (z-score),Gal6S(b1-4)Glc6S,0.008
same,glycan array binding signal (z-score),Gal6S(b1-4)GlcNAc,-0.728
same,glycan array binding signal (z-score),Gal6S(b1-4)GlcNAc6S,0.314
same,glycan array binding signal (z-score),GalNAc(a1-3)Gal,0.545
same,glycan array binding signal (z-score),GalNAc(a1-3)GalNAc,0.294
same,glycan array binding signal (z-score),GalNAc(b1-3)Gal,0.538
same,glycan array binding signal (z-score),[2],0.511
same,glycan array binding signal (z-score),GalNAc(b1-3)GalNAc,0.59
same,glycan array binding signal (z-score),GalNAc(b1-4)GlcNAc,-0.573
same,glycan array binding signal (z-score),Glc(a1-4)Glc,0.29
same,glycan array binding signal (z-score),Glc(a1-6)Glc(a1-6)Glc,-0.239
same,glycan array binding signal (z-score),Glc(b1-4)Glc,-0.548
same,glycan array binding signal (z-score),Glc(b1-6)Glc,-0.622
same,glycan array binding signal (z-score),GlcA(b1-3)Gal,0.097
same,glycan array binding signal (z-score),GlcA(b1-3)GlcNAc,-0.002
same,glycan array binding signal (z-score),GlcA(b1-6)Gal,-0.284
same,glycan array binding signal (z-score),[3],-0.486
same,glycan array binding signal (z-score),[4],-0.738
same,glycan array binding signal (z-score),[5],-0.531
same,glycan array binding signal (z-score),[6],-0.364
same,glycan array binding signal (z-score),GlcNAc(b1-3)Gal,0.174
same,glycan array binding signal (z-score),[7],0.104
same,glycan array binding signal (z-score),GlcNAc(b1-3)Gal(b1-4)Glc,0.399
same,glycan array binding signal (z-score),[8],-0.176
same,glycan array binding signal (z-score),[9],0.047
same,glycan array binding signal (z-score),GlcNAc(b1-3)GalNAc,-0.555
same,glycan array binding signal (z-score),GlcNAc(b1-3)Man,-0.668
same,glycan array binding signal (z-score),[10],-0.563
same,glycan array binding signal (z-score),[11],-0.385
same,glycan array binding signal (z-score),[12],-0.697
same,glycan array binding signal (z-score),[13],-0.41
same,glycan array binding signal (z-score),GlcNAc(b1-4)GlcNAc,-0.45
same,glycan array binding signal (z-score),[14],-0.427
same,glycan array binding signal (z-score),[15],-0.327
same,glycan array binding signal (z-score),[16],-0.63
same,glycan array binding signal (z-score),[17],-0.277
same,glycan array binding signal (z-score),[18],0.095
same,glycan array binding signal (z-score),GlcNAc(b1-6)GalNAc,-0.125
